The BET-seq Pho4 binding data (Le et al. 2018)
Some of the results follow. Values were computed here from the reads of four pooled replicates and scatter widely.

biological target: T1, Pho4 (S. cerevisiae) (UniProt P07270); assay: relative binding free energy (BET-seq); higher = weaker binding; conditions: reference: library average
T1 sequence: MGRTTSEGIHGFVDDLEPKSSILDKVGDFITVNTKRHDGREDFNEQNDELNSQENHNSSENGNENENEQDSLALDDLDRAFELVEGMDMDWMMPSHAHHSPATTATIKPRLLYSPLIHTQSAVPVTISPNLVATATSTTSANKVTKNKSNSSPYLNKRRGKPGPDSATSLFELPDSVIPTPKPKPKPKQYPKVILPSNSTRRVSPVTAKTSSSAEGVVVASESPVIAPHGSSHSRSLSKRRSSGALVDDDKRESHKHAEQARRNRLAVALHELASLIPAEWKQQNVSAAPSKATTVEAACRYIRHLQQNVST

Row | Sequence | relative binding free energy
1 | CGCGGCACGTGGAATG | 0.05 kcal/mol
2 | CAACTCACGTGGGTGG | 0.13 kcal/mol
3 | TTGCGCACGTGTGGGA | -0.18 kcal/mol
4 | CTTTTCACGTGAAGGG | 0.35 kcal/mol
5 | TTTTCCACGTGGGATT | 0.05 kcal/mol
6 | ATGCTCACGTGGTTGT | 0.21 kcal/mol
7 | TATTTCACGTGGCTGC | 0.24 kcal/mol
8 | GTAGGCACGTGTCATT | -0.11 kcal/mol
9 | ATAATCACGTGGTATT | 0.03 kcal/mol
10 | ACGTACACGTGATGTG | 0.22 kcal/mol
11 | TAGGGCACGTGAGTAG | 0.09 kcal/mol
12 | GTTTGCACGTGGTTTG | 0.09 kcal/mol
13 | AGGCTCACGTGTTCGG | 0.22 kcal/mol
14 | TTTTACACGTGGGATG | 0.15 kcal/mol
15 | GATTTCACGTGCAGGG | 0.44 kcal/mol
16 | GACGTCACGTGTGGTA | 0.11 kcal/mol
17 | TAAGACACGTGCGTGG | 0.05 kcal/mol
18 | AAGGGCACGTGGGACG | -0.22 kcal/mol
19 | AGGTGCACGTGAATGT | 0.2 kcal/mol
20 | AGGCTCACGTGAGTGG | 0.3 kcal/mol
21 | TTTCACACGTGAATGG | 0.33 kcal/mol
22 | GGTATCACGTGGGTTT | 0.2 kcal/mol
23 | AGTGTCACGTGTATAA | 0.11 kcal/mol
24 | CGGAACACGTGGGCGT | -0.09 kcal/mol
25 | GTGATCACGTGTGTGG | 0.15 kcal/mol

Row | Sequence | relative binding free energy
26 | GTGCGCACGTGGTATT | -0.21 kcal/mol
27 | CATGGCACGTGGCGGG | -0.18 kcal/mol
28 | AGGGTCACGTGATGGG | 0.23 kcal/mol
29 | GTCGGCACGTGGGGTC | -0.16 kcal/mol
30 | CTGGGCACGTGGATTA | 0.03 kcal/mol
31 | TAGGTCACGTGGCAGT | 0.06 kcal/mol
32 | ATTTACACGTGTCAGG | 0.01 kcal/mol
33 | GGGGTCACGTGCTCTG | 0.2 kcal/mol
34 | GTGTTCACGTGCTGGG | 0.32 kcal/mol
35 | ACTTTCACGTGTCAGG | 0.31 kcal/mol
36 | GTTCGCACGTGATGTA | 0.17 kcal/mol
37 | GCTTACACGTGGGGGG | 0.09 kcal/mol
38 | CGGCGCACGTGAGCGG | 0.07 kcal/mol
39 | TGGGTCACGTGATGCC | 0.28 kcal/mol
40 | GTGCTCACGTGCAGGG | 0.1 kcal/mol
41 | AGTCTCACGTGTAGGT | 0.06 kcal/mol
42 | TTTGCCACGTGGTCGA | -0.13 kcal/mol
43 | CTTGTCACGTGGAGCT | 0.11 kcal/mol
44 | TAGAACACGTGGGATT | 0 kcal/mol
45 | AGGGGCACGTGTCGGC | -0.22 kcal/mol
46 | AGGGTCACGTGGCTCG | 0.06 kcal/mol
47 | TTTGACACGTGAGCGT | 0.11 kcal/mol
48 | GTAGTCACGTGGTAAT | 0.23 kcal/mol
49 | CTTGGCACGTGGGGCC | -0.19 kcal/mol
50 | CGTGGCACGTGGGTAG | -0.29 kcal/mol

Row | Sequence | relative binding free energy
51 | AGCGTCACGTGGTATA | 0.1 kcal/mol
52 | AGTGGCACGTGTGGGC | 0.03 kcal/mol
53 | AGTGGCACGTGGAGGT | -0.04 kcal/mol
54 | CGTCACACGTGGGTGT | -0.13 kcal/mol
55 | AAAGGCACGTGTGCTT | 0 kcal/mol
56 | GTTAACACGTGCTGTG | -0.08 kcal/mol
57 | GTATTCACGTGACTGT | 0.21 kcal/mol
58 | TACGGCACGTGGGTAT | -0.24 kcal/mol
59 | TAGGACACGTGGGGTC | -0.09 kcal/mol
60 | TAAGACACGTGCGGTT | 0.03 kcal/mol
61 | CTGTCCACGTGTTTGG | -0.02 kcal/mol
62 | ATGGTCACGTGTGAGG | 0.11 kcal/mol
63 | TGGTCCACGTGGACGG | 0.06 kcal/mol
64 | AGCGTCACGTGGTTTA | -0.05 kcal/mol
65 | AGTATCACGTGTGGGT | 0.14 kcal/mol
66 | TGTGGCACGTGATAGT | 0.11 kcal/mol
67 | GTGGGCACGTGATGAT | 0.12 kcal/mol
68 | GGTATCACGTGGTCGG | 0.13 kcal/mol
69 | AGTGTCACGTGTACGG | 0 kcal/mol
70 | ATTGGCACGTGGTTGG | -0.12 kcal/mol
71 | TGGTTCACGTGCGGTT | 0.3 kcal/mol
72 | TGAGACACGTGTTAGA | 0 kcal/mol
73 | GGGGGCACGTGGGGAT | -0.16 kcal/mol
74 | GAGTGCACGTGATTGT | 0.12 kcal/mol
75 | TGATACACGTGTTTAT | -0.02 kcal/mol

Row | Sequence | relative binding free energy
76 | TGTCTCACGTGTTGGC | 0.29 kcal/mol
77 | AAGCTCACGTGGGATG | 0.15 kcal/mol
78 | ATATGCACGTGTTGGT | 0.03 kcal/mol
79 | TGTTACACGTGCTTAT | 0.06 kcal/mol
80 | CTGGACACGTGAGCGG | 0.31 kcal/mol
81 | TGAGACACGTGGATTG | -0.12 kcal/mol
82 | TAAAACACGTGGGGCT | 0.03 kcal/mol
83 | TTTGGCACGTGAATGA | 0.25 kcal/mol
84 | TGCGGCACGTGGAGTT | 0.06 kcal/mol
85 | AGCTGCACGTGAGTGA | 0.24 kcal/mol
86 | CGTGTCACGTGTTTAG | 0.03 kcal/mol
87 | AGGTGCACGTGATGAT | 0.13 kcal/mol
88 | GGTGTCACGTGGTGCC | 0.09 kcal/mol
89 | CATTTCACGTGTCAGG | 0.28 kcal/mol
90 | AATGTCACGTGGGAGT | 0.09 kcal/mol
91 | GTAAGCACGTGTATGA | -0.09 kcal/mol
92 | GTTATCACGTGGTTGC | 0.21 kcal/mol
93 | TTGCTCACGTGTGCGT | -0.01 kcal/mol
94 | TGTTCCACGTGTTGAG | 0.16 kcal/mol
95 | GGTTTCACGTGCGTAG | 0.24 kcal/mol
96 | TGTGTCACGTGTGATC | 0.19 kcal/mol
97 | AGAAACACGTGGGTGC | 0.04 kcal/mol
98 | TGGGTCACGTGGTAAG | 0.19 kcal/mol
99 | GTATACACGTGCGTGG | -0.15 kcal/mol
100 | GGGAGCACGTGTGGTG | -0.07 kcal/mol

Row | Sequence | relative binding free energy
101 | AGGGACACGTGGTAGA | -0.17 kcal/mol
102 | TGCTTCACGTGAGTGA | 0.28 kcal/mol
103 | AGCTGCACGTGGTGTT | -0.12 kcal/mol
104 | TTGAACACGTGACGGT | 0.11 kcal/mol
105 | GTAAGCACGTGTGGCG | 0.11 kcal/mol
106 | TTAGTCACGTGCGAAT | 0.22 kcal/mol
107 | TGGGCCACGTGGTGAT | -0.08 kcal/mol
108 | TTGCGCACGTGCAGGG | -0.16 kcal/mol
109 | TTTGTCACGTGGAAGC | 0.3 kcal/mol
110 | GAAGGCACGTGGTATT | -0.07 kcal/mol
111 | TTTGGCACGTGGTGAA | -0.09 kcal/mol
112 | ATTAACACGTGATGTA | 0.02 kcal/mol
113 | TGTTTCACGTGTCTGC | 0.23 kcal/mol
114 | TTCATCACGTGGCTTT | 0.11 kcal/mol
115 | AGTCGCACGTGTAGAG | 0.04 kcal/mol
116 | CAGAGCACGTGTGTTT | -0.11 kcal/mol
117 | GTCAGCACGTGGGTAG | -0.22 kcal/mol
118 | GTAAGCACGTGTATGT | 0.03 kcal/mol
119 | TGTACCACGTGTAGTT | 0.06 kcal/mol
120 | ACGGGCACGTGTGCGG | -0.07 kcal/mol
121 | CGTGGCACGTGGTTGT | -0.2 kcal/mol
122 | TATTTCACGTGAGCGT | 0.34 kcal/mol
123 | TGTGGCACGTGTTGGG | 0.03 kcal/mol
124 | TGTTTCACGTGCTATA | 0.24 kcal/mol
125 | TTGTACACGTGAGTAG | 0.03 kcal/mol

Row | Sequence | relative binding free energy
126 | TGAATCACGTGTTATT | 0.05 kcal/mol
127 | GAATGCACGTGTGGTG | 0.09 kcal/mol
128 | AGGGGCACGTGCGTGA | -0.24 kcal/mol
129 | GATTACACGTGCGTGT | 0.03 kcal/mol
130 | ATGTGCACGTGTGGAG | -0.1 kcal/mol
131 | TAGTTCACGTGTTTTG | 0.24 kcal/mol
132 | ATAGTCACGTGTTTGC | 0.03 kcal/mol
133 | TCGTGCACGTGCTGGG | -0.05 kcal/mol
134 | CCATGCACGTGGGGTA | -0.11 kcal/mol
135 | TTTTACACGTGTAGCA | 0.08 kcal/mol
136 | TTGATCACGTGTTAAT | 0.04 kcal/mol
137 | AGCTGCACGTGGGGAG | -0.1 kcal/mol
138 | TGTTTCACGTGCGTTA | 0.23 kcal/mol
139 | TGGCGCACGTGAATTG | 0.23 kcal/mol
140 | TGGCGCACGTGGGGAT | -0.22 kcal/mol
141 | GATGGCACGTGTTAGC | 0.06 kcal/mol
142 | GAGGGCACGTGCAGGT | -0.2 kcal/mol
143 | TTTGTCACGTGTTCAG | 0.28 kcal/mol
144 | GTCGGCACGTGACTGG | 0.07 kcal/mol
145 | AGGTACACGTGCGGGG | -0.09 kcal/mol
146 | CCGGTCACGTGGTTTA | 0.07 kcal/mol
